Publication PMC6919601, “Identification of Plasmodium dipeptidyl aminopeptidase allosteric inhibitors by high throughput screening” (PLoS ONE, 2019)
Where “and” joins values, the source holds several entries; their conditions need not be identical. Equal entries are not always repeated. Screen size: about 110,000 compounds; about 230 (0.21%) showed an effect of 50% or more. The list shows a part of the results.

target: DPAP1 (Plasmodium falciparum, UniProt Q8IIJ9); experiment: primary screen, percent inhibition; read by cleavage of a fluorogenic dipeptide substrate; higher = more effect of the substance; design: species or system P. falciparum D10 trophozoite lysates; single well
Sequence (Q8IIJ9 whole entry, looked up): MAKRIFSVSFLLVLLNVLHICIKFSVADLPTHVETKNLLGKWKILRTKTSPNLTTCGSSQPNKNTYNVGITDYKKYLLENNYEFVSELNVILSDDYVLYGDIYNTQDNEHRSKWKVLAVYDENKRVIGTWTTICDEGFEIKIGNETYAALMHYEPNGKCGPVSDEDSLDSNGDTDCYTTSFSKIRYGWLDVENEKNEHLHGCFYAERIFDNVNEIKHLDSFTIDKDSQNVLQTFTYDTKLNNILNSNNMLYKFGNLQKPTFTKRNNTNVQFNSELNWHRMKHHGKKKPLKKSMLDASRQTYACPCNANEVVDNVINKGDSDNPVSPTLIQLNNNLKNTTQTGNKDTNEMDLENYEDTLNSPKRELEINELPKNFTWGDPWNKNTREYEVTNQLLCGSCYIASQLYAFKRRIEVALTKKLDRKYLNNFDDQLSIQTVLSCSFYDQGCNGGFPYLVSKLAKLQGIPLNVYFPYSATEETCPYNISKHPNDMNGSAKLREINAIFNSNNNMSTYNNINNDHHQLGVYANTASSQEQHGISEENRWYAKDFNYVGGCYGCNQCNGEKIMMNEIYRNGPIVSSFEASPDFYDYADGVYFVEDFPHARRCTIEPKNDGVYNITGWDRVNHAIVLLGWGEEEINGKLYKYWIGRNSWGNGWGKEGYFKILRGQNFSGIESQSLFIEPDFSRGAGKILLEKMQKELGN
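Note: 30 min substrate incubation versus DMSO and 10 µM JCP410 controls.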

Compared with `c1cc(-c2nn[nH]n2)ccc1CN1CCOCC1`, `O=C(c1cc(-c2ccc(Cl)cc2)nc2ccccc12)N1CCOCC1` is higher in “% Inhibition @ 10 uM” value: -4.07% for the first, -3.18% for the second.

Compared with `O=C(O)CNc1ncnc2oc(-c3ccccc3)c(-c3ccccc3)c12`, `c1ccc(Sc2c(-c3ccccc3)nc3sccn23)cc1` is higher in “% Inhibition @ 10 uM” value: -4.12% for the first, 4.35% for the second.

Going from `CCc1c(-c2ccccc2)nc2ccccc2c1C(=O)N1CCC2(CC1)OCCO2` to `O=C1NC2(CCN(C(=O)c3ccc4ccccc4c3)CC2)N=C1c1ccccc1`, the “% Inhibition @ 10 uM” value rises from -2.26% to -1.6%.

Going from `COc1cccc(NC(=O)c2ccccc2Br)c1` to `O=C(Nc1cccc(Cl)c1)c1ccccc1NC(=O)C1CC=CCC1C(=O)O` (stereo not shown), the “% Inhibition @ 10 uM” value falls from 0.035% to -0.872%.

Going from `O=C(c1cccs1)c1coc2ccc(O)c(CN3CCCCC3)c12` to `O=c1cc(N2CCCC2)c2ccccc2o1`, the “% Inhibition @ 10 uM” value rises from -2.39% to 0.0719%.

Compared with `O=C(CCc1ccccc1)NCC1(c2ccccc2)CCOCC1`, `Cc1cc(NCCc2ccccc2)cc(=O)n1CCc1ccccc1` is lower in “% Inhibition @ 10 uM” value: 13.3% for the first, -1.61% for the second.

Compared with `CCOc1ccccc1N1C(=O)c2cccnc2C1=O`, `CC(=O)c1cccc(N2C(=O)c3ccc(Cl)cc3C2=O)c1` is lower in “% Inhibition @ 10 uM” value: -3.34% for the first, -3.69% for the second.

Going from `COc1ccc(/C=C(\NC(=O)c2ccc(OC)cc2)C(=O)N2CCCCC2)cc1` to `COc1ccc(C(=O)Nc2cc(Cl)c(NC(=O)c3ccccc3)cc2OC)cc1`, the “% Inhibition @ 10 uM” value rises from 0.674% to 1.15%.

First: O=C1Nc2ccc([N+](=O)[O-])c3cccc1c23
Second: O=C1OC(c2cccc(Cl)c2Cl)=N/C1=C/c1ccco1
The “% Inhibition @ 10 uM” value of the first is higher: 2.65% for the first, -0.77% for the second.

Going from `Cc1cc(C)n2nc(SCC(=O)NCc3ccco3)nc2n1` to `Cc1ccc(NC(=O)CCSc2nc(C)cc(C)n2)cc1`, the “% Inhibition @ 10 uM” value falls from 5.89% to -5.19%.

Going from `CC1CCCC(C)N1c1nnc(NC(=O)c2cc(-c3ccc(Br)cc3)on2)s1` (stereo not shown) to `COCCNC(=O)Cn1nc(C)c(NC(=O)c2cc(-c3ccc(F)cc3)no2)c1C`, the “% Inhibition @ 10 uM” value rises from -1.6% to 0.526%.

First: COc1ccccc1N1CCN(C(=O)CN(c2cc(C)cc(C)c2)S(=O)(=O)c2ccccc2)CC1
Second: COc1ccccc1N1CCN(C(=O)CCN2C(=O)c3cccc4cccc(c34)C2=O)CC1
The “% Inhibition @ 10 uM” value of the first is lower: -1.28% for the first, 5.24% for the second.

Going from `Cc1cc(=O)n2nc(N3CCCC3C(=O)NC3CCN(Cc4ccccc4)CC3)sc2n1` (stereo not shown) to `c1ccc(CCN2CCC(NCC3CCCCC3)CC2)cc1`, the “% Inhibition @ 10 uM” value rises from -0.281% to 0.217%.

Going from `COc1cc2c(cc1OC)CN(C(=O)CSc1nc3c(cc1C#N)CCC3)CC2` to `COc1cc(C2C(C#N)=C(N)OC3=C2C(=O)CCC3)cc(OC)c1O` (stereo not shown), the “% Inhibition @ 10 uM” value falls from 4.28% to 3.31%.

Going from `CC(=O)Nc1c(-c2ccccc2)nc2ncccn12` to `O=C(COc1ccccc1)Nc1ccccc1-n1cccc1`, the “% Inhibition @ 10 uM” value falls from 2.92% to -1.98%.

Compared with `CC12CN(Cc3ccccc3)CC(C)(CN(Cc3ccccc3)C1)C2O` (stereo not shown), `CCc1ccc(C2N3CC4(C)CN2CC(C)(C3)C4O)cc1` (stereo not shown) is higher in “% Inhibition @ 10 uM” value: -4.23% for the first, -1.71% for the second.

Compared with `COc1ccccc1C1C(C#N)=C(N)OC2=C1C(=O)CCC2` (stereo not shown), `COc1cc(C2C(C#N)=C(N)OC3=C2C(=O)CCC3)ccc1OCc1ccc(F)cc1` (stereo not shown) is lower in “% Inhibition @ 10 uM” value: 3.99% for the first, 1.57% for the second.

First: O=C1CC(NC2CCCCC2)C(=O)N1c1cccc(C(F)(F)F)c1 (stereo not shown)
Second: CC1CCN(C2CC(=O)N(c3ccc(Br)cc3)C2=O)CC1 (stereo not shown)
The “% Inhibition @ 10 uM” value of the first is lower: -1.95% for the first, 2.4% for the second.

Going from `CC(C)CCNc1c(-c2cccc(Cl)c2)[nH]c2c(C#N)cnn12` to `CCn1cc(CN(C)C(=O)c2cnn3c(C(F)F)cc(-c4ccccc4)nc23)c(C)n1`, the “% Inhibition @ 10 uM” value rises from -4.71% to 1.51%.

First: Cc1ccc(N2C(=O)c3ccc(C(=O)O)cc3C2=O)cc1C
Second: C=C1c2cc(C)c(C)cc2NC(=O)N1c1ccc(Cl)cc1
The “% Inhibition @ 10 uM” value of the first is higher: 2.22% for the first, 0.214% for the second.

Going from `O=C1NC(c2ccc(Cl)cc2)Nc2c1sc(=S)n2-c1ccccc1` (stereo not shown) to `Cc1cc(-c2ccco2)n(-c2ccccc2)n1`, the “% Inhibition @ 10 uM” value falls from 2.92% to 1.33%.

Going from `CC(C)CNS(=O)(=O)c1ccc(S(=O)(=O)N2CCN(c3ncccn3)CC2)cc1` to `O=C(Nc1c(C(=O)N2CCN(c3ncccn3)CC2)oc2ccccc12)c1cccc(F)c1`, the “% Inhibition @ 10 uM” value rises from -2.92% to 1.23%.

First: Cc1ccc(C(C)NC(=O)c2ccccc2)c(C)c1 (stereo not shown)
Second: Cc1ccc(NC(=O)c2ccc([N+](=O)[O-])cc2)c(Br)c1
The “% Inhibition @ 10 uM” value of the first is higher: 5.04% for the first, -6.68% for the second.

Compared with `O=S(=O)(c1ccc2[nH]c3c(c2c1)CCCC3)N1CCc2ccccc2C1`, `O=C(C1CCN(S(=O)(=O)c2c[nH]cn2)CC1)N1CC=C(c2ccccc2)CC1` is higher in “% Inhibition @ 10 uM” value: -4.44% for the first, 2.9% for the second.

Going from `CSc1nc(Oc2ccc(C)c(C)c2)cc(-n2nc(C)c(C(N)=O)c2N)n1` to `CCSc1nc(O)c2c(n1)N=C1CC(C)(C)CC(O)=C1C2c1ccc(OC)c(OC)c1` (stereo not shown), the “% Inhibition @ 10 uM” value falls from 3.67% to -2.56%.

Compared with `CCCCN(C)c1ncnc2c1sc1nc3c(cc12)COC(C)(C)C3`, `CN(C)CCn1cnc2c1c(=O)n(C)c(=O)n2C` is higher in “% Inhibition @ 10 uM” value: -3.41% for the first, -1.81% for the second.

First: O=C(NCc1cccnc1)Nc1ccc(Cl)c(Cl)c1
Second: O=C(NCc1ccccc1Cl)c1nnc(Cc2ccc(F)cc2Cl)o1
The “% Inhibition @ 10 uM” value of the first is lower: 2.79% for the first, 3.5% for the second.

First: Cc1csc(NC(=O)CNS(=O)(=O)c2cccs2)n1
Second: COc1ccc(S(=O)(=O)Nc2ccc(Cl)cn2)c(C)c1C
The “% Inhibition @ 10 uM” value of the first is higher: 1.07% for the first, -4.86% for the second.

Going from `Cc1cccc(C(O)(c2ccccc2)C(CN2CCOCC2)c2ccccc2)c1` (stereo not shown) to `O=C(Nc1ccccc1F)C(c1ccccc1)c1ccccc1`, the “% Inhibition @ 10 uM” value falls from 2.73% to -1.48%.

First: Cc1cc(/C=C2/SC(=O)N(Cc3ccccc3C#N)C2=O)c(C)n1-c1ccc(S(N)(=O)=O)cc1
Second: CC(=O)Nc1ccc(S(=O)(=O)C(CC(=O)c2ccccc2)c2ccc(N(C)C)cc2)cc1 (stereo not shown)
The “% Inhibition @ 10 uM” value of the first is higher: 2.65% for the first, -2.46% for the second.

Compared with `CCCCn1c(=O)c(C(=O)Nc2ccc(OCC)cc2)c(O)c2ccccc21`, `CCNC(=O)/C(C#N)=C/c1c(Oc2ccc(OC)cc2)nc2ccccn2c1=O` is higher in “% Inhibition @ 10 uM” value: -17.7% for the first, 0.189% for the second.

Compared with `CCN1CCN(C/C=C(\C)CCC=C(C)C)CC1`, `CC(C)=CCC/C(C)=C/CN1CCN(c2ccccc2)CC1` is lower in “% Inhibition @ 10 uM” value: -0.505% for the first, -0.603% for the second.

Compared with `O=C1CC(N2CCN(CCO)CC2)C(=O)N1c1ccc(Br)cc1` (stereo not shown), `O=C(c1ccc(Br)cc1)N1CCN(c2ccc(F)cc2)CC1` is lower in “% Inhibition @ 10 uM” value: 0.823% for the first, 0.815% for the second.

First: Cc1nc2ccccc2c2oc(C(=O)NCc3ccc4c(c3)OCO4)cc12
Second: O=C1OC(/C=C/c2ccccc2)=NC/1=C/c1ccc2c(c1)OCO2
The “% Inhibition @ 10 uM” value of the first is higher: 3.01% for the first, -0.945% for the second.

First: O=C(Nc1cccc2ccccc12)C1CC1c1ccccc1 (stereo not shown)
Second: O=C(CCCN1C(=O)C(c2ccccc2)Oc2cccnc21)NCc1ccc(F)cc1 (stereo not shown)
The “% Inhibition @ 10 uM” value of the first is lower: -4.61% for the first, -1.53% for the second.

Going from `COc1cc(SC)ccc1C(=O)Nc1ccc(S(=O)(=O)N2CCC(C)CC2)cc1` to `O=S(=O)(c1ccc(OC(F)(F)F)cc1)N1CCC(O)(c2cccc(C(F)(F)F)c2)CC1`, the “% Inhibition @ 10 uM” value falls from 0.562% to -1.07%.

Compared with `N#CC1=C(SCC(=O)N2CCOCC2)NC(=O)CC1c1ccccc1F` (stereo not shown), `O=C(CCN1C(=O)c2ccccc2C1=O)NCCC1=CCCCC1` is lower in “% Inhibition @ 10 uM” value: 6.08% for the first, -3.51% for the second.

First: CCC(=N)c1ccc(OC)c2cccc(NC)c12
Second: COc1ccc(N(CC(=O)NCc2ccco2)S(=O)(=O)c2ccccc2)cc1Cl
The “% Inhibition @ 10 uM” value of the first is higher: 10.9% for the first, 2.09% for the second.

Compared with `O=C(NCCc1nc2ccccc2[nH]1)c1cc2ccccc2o1`, `CC(NC(=O)c1ccc(CSCc2ccccc2F)o1)c1ccccc1` (stereo not shown) is higher in “% Inhibition @ 10 uM” value: -4.13% for the first, 0.718% for the second.

Compared with `Cc1nnc(N2CCC(C(=O)NC3CCCc4ccccc43)CC2)c2nn(-c3ccccc3)c(C)c12` (stereo not shown), `CN(Cc1ccccc1)C(=O)C1CCN(C(=O)c2cnn(-c3ccccc3)c2-n2cccc2)CC1` is higher in “% Inhibition @ 10 uM” value: -6.13% for the first, -3.35% for the second.

Compared with `COc1ccc(OC)c(C2C(C#N)=C(C)N=C3CCCC(O)=C32)c1` (stereo not shown), `COc1ccc(C2=NCCO2)cc1OC1CCCC1` is lower in “% Inhibition @ 10 uM” value: -1.2% for the first, -1.61% for the second.

Going from `CCOC(=O)C(C#N)=C1SC2CS(=O)(=O)CC2S1` (stereo not shown) to `Cc1nn(C)cc1CNC(=O)CCC(=O)O`, the “% Inhibition @ 10 uM” value rises from -3.98% to 3.94%.

First: COc1ccc(C2CC(C(F)(F)F)n3ncc(C(=O)Nc4cc(Cl)ccc4O)c3N2)cc1OC (stereo not shown)
Second: COc1ccc(N2C(=O)CC(NCc3ccc(F)cc3)C2=O)cc1 (stereo not shown)
The “% Inhibition @ 10 uM” value of the first is lower: -4.39% for the first, -1.88% for the second.

First: COc1cc(C2=NOC(C(=O)NCC3CCCO3)C2)cc(OC)c1OC (stereo not shown)
Second: CCOc1cc(C(=O)NCCSc2c(C)[nH]c3ccccc23)cc(OCC)c1OCC
The “% Inhibition @ 10 uM” value of the first is higher: 1.24% for the first, -1.82% for the second.

Compared with `O=C(CC1(O)C(=O)Nc2ccc(Br)cc21)c1ccc2ccccc2c1` (stereo not shown), `CC(=O)c1ccc(-n2c(CCC(=O)O)ccc2-c2ccccc2)cc1` is higher in “% Inhibition @ 10 uM” value: 4.03% for the first, 6.85% for the second.

Compared with `O=C(O)/C=C/C(=O)N1CC=C(c2ccccc2)CC1`, `CCOCCc1nnc(NC(=O)/C=C/c2ccccc2)s1` is lower in “% Inhibition @ 10 uM” value: 5.52% for the first, 3.25% for the second.

Going from `C=CCNc1nc(N)c(C(=O)c2ccc(OC)cc2)s1` to `N#CC1C(=O)NC(=O)C([n+]2ccccc2)C1c1ccc(O)cc1` (stereo not shown), the “% Inhibition @ 10 uM” value rises from -0.0678% to 5.35%.

First: CC(Cc1ccccc1Sc1ccc(O)cc1)N(C)C (stereo not shown)
Second: Cc1ccccc1OCCCCCN1CCCC1
The “% Inhibition @ 10 uM” value of the first is lower: -6.02% for the first, 2.25% for the second.

First: CC(=O)NC12CC3(C)CC(C)(C1)CC(NC(C)=O)(C3)C2
Second: Cc1c2cnn(CC(=O)NCCCN3CC(C)CC(C)C3)c(=O)c2c(C)n1Cc1ccc(Cl)cc1 (stereo not shown)
The “% Inhibition @ 10 uM” value of the first is lower: -0.636% for the first, 1.22% for the second.

`Cc1cc(C)c2c(-n3cccc3)c(C(=O)N3CCC(N4CCCCC4)CC3)sc2n1` was tested, and the “% Inhibition @ 10 uM” value was 5.42%.

In the case of `Cc1cccc(C)c1NC(=O)c1c(Br)c(C)nn1C`, the “% Inhibition @ 10 uM” value is reported as 0.686% and 3.65%.
